Measurements published in PMC3527473, “The C-Terminus of ClpC1 of Mycobacterium tuberculosis Is Crucial for Its Oligomerization and Function” (PLoS ONE, 2012).

Biological target: the molecule itself
Experiment: SEC; Superdex-200 (1×30 cm) in buffer A (50 mM Tris-HCl pH 7.6, 100 mM KCl, 5 mM DTT, 10% glycerol, 0.01% Triton X-100) with 15 mM ATP and 10 mM MgCl2; protein pre-incubated with 15 mM ATP and 10 mM MgCl2 for 30 min at 25°C; monomer to hexamer; fractions checked by SDS-PAGE

B1: Mycobacterium tuberculosis ClpC1, wild type (natural protein)
chain: not shown
notes: also called ClpC1-WT
stoichiometry N: 6
